Some of the results follow.

This experiment has as its system PF3D7_0420300 AP2 domain 1 (GST-tagged). The experiment can be described thus: gcPBM binding intensity (ln(normalized median fluorescence intensity)); higher = stronger DNA binding. In a few lines:
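GST-fused DNA-binding domains of P. falciparum, expressed in E. coli, were applied at about 25 μg on average for 1 h to an Agilent 4 × 180k array of primer-extended double-stranded 36-bp intergenic genomic probes and negative controls. Binding intensity is the highest Masliner-normalised natural-log median intensity across replicate spots of either probe orientation, measured with Alexa488 anti-GST antibody and a 488 nm scan.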
With “GAGAGGTATCAAAAATGTACACATATATATATGTAT [XGTACX_site5611]”, the “gcPBM binding intensity (ln)” value came out at 9.2.

With “TTTTTTCTTTATTATGGTACGTATAAAAAAATTATA [XGTACX_site3433]”, the “gcPBM binding intensity (ln)” value is 9.02.

In the case of “ATATATAATATATATTGTACAGGTATGTCTATAAAT [XGTACX_site2243]”, the “gcPBM binding intensity (ln)” value turned out to be 9.37.

As to “TTTTTATCAACAAATAATACCATAACTCATATTTAT [CACACA_negctrl_site740]”, the “gcPBM binding intensity (ln)” value came out at 9.1.

On to “ATTATTCCATATTATTGTACTTTAATTTTTTAAACC [XGTACX_site2960]”, for which the “gcPBM binding intensity (ln)” value came out at 9.29.

Turning to “TATAAAATTTTTAAAAGTACATATTTTACATAATAC [XGTACX_site2193]”, the “gcPBM binding intensity (ln)” value is 9.1.

For the sequence “ACTAATAAAGGTGTAATACACACTATAAAAAGGAAT [CACACA_site1124]”, the “gcPBM binding intensity (ln)” value was 9.61.

As for “AAAATGTTATTGGAAAGTACAAAAAAAATTATATAA [XGTACX_site4074]”, the “gcPBM binding intensity (ln)” value was 9.23.

In the case of “TTAATATATATATATATATATATATTTTTATTTTTT [CACACA_negctrl_site763]”, the “gcPBM binding intensity (ln)” value stood at 9.

For the sequence “TGTATTAACAAAAAGGTGCGGATATATATAAAAAAT [GTGCAC_site9473]”, the “gcPBM binding intensity (ln)” value stood at 9.61.

With “ATAAAACGTACAATGGTGCATATAAATAATATATAT [GTGCAC_site9960]”, the “gcPBM binding intensity (ln)” value was 9.47.

As for “CATATATAGATATATACACACATATATAAATAAATA [CACACA_site6759]”, the “gcPBM binding intensity (ln)” value amounted to 9.64.

For “TATGTATATTCTTTCAGTACACATAATGTTGTCATA [XGTACX_site8845]”, the “gcPBM binding intensity (ln)” value came out at 9.27.

Regarding “TTATATATATATATATATATATATATATATATAAAT [GTGCAC_negctrl_site126]”, the “gcPBM binding intensity (ln)” value came out at 8.83.

Take CATTATGTACAAAAAGTGCAATATATATTAACACTG: the “gcPBM binding intensity (ln)” value was found to be 9.16.

As for “AACAAAATAAGAAAACGTACAAATGTTTCAAATTCT [XGTACX_site1544]”, the “gcPBM binding intensity (ln)” value was 9.38.

For the sequence “TTTTCAAAGATATATACACACATGCATATTACGGTG [CACACA_site6505]”, the “gcPBM binding intensity (ln)” value is 9.43.

For “TTAATAAATATCAATACACACACACTAATGTGAATA [CACACA_site9254]”, the “gcPBM binding intensity (ln)” value amounted to 9.83.

Take “TTTTTGAGTGCACATACACACAGACATACATTTAAA [CACACA_site5813]”: the “gcPBM binding intensity (ln)” value is 9.48.

With “GGATTCAAAAAAAAAAATAAAAGTAAATAATAAATA [TGCATGCA_negctrl_site348]”, the “gcPBM binding intensity (ln)” value was 9.19.

Consider “TAAATATATTTATACACACACACCAAAGCAATAGAT [CACACA_site7393]”, for which the “gcPBM binding intensity (ln)” value was found to be 10.3.

In the case of “TTCAATATACATATGTGTACTAAAATAAATAGAAAA [XGTACX_site5708]”, the “gcPBM binding intensity (ln)” value came to 9.35.

As for “ATTACAACATTTTATACACACGTGATTATTAATTTT [CACACA_site5581]”, the “gcPBM binding intensity (ln)” value turned out to be 9.56.

Turning to “TTTATGAAGTAAAAATATAAATTCACAAAGTTAAAA [CACACA_negctrl_site1476]”, the “gcPBM binding intensity (ln)” value came out at 9.03.

Source of the values: the supplement of paper PMC11417369.
